Measured values as given in PubChem BioAssay AID588342 (National Center for Advancing Translational Sciences (NCATS), 2011).
About 25,000 (6.9%) of roughly 360,000 compounds were called active. Inconclusive results, whose numbers are uncertain, are shown with a selection of clear calls. Calls come from the whole dose curve; as a rule, active = well fitted inhibition curve with a large enough effect; inconclusive = small, poorly fitted or top-dose-only effect; inactive = flat fitted curve, though single readings scatter. Potencies of inconclusive entries are doubtful fits and often do not repeat.

These compounds were tested against Luciferin 4-monooxygenase (Photinus pyralis) (UniProt P08659) (assay: qHTS profiling assay for firefly luciferase inhibitor/activator using purifed enzyme and Km concentrations of substrates (counterscreen for miR-21 project)). Conditions: purified FLuc, luminescence inhibition; series mostly up to 57.5 µM.
Summary of the method: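 Purified P. pyralis luciferase, 10 nM final, with Km-level 10 uM D-luciferin and 10 uM ATP in 50 mM Tris acetate pH 7.5, 10 mM Mg acetate, 0.01% Tween-20, 0.05% BSA; 6-point qHTS titration about 60 µM downward; luminescence read.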
Note: nearly all actives have a fitted effect of over 55% in size.
Potency is the fitted concentration of half-maximal effect; tags give direction and shape of the fitted curve.
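Throughout, for activity change, negative = inhibition: plate controls were vehicle for no effect and reference inhibitor for full effect.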

Sequence of UniProt P08659 (P08659 whole entry, looked up): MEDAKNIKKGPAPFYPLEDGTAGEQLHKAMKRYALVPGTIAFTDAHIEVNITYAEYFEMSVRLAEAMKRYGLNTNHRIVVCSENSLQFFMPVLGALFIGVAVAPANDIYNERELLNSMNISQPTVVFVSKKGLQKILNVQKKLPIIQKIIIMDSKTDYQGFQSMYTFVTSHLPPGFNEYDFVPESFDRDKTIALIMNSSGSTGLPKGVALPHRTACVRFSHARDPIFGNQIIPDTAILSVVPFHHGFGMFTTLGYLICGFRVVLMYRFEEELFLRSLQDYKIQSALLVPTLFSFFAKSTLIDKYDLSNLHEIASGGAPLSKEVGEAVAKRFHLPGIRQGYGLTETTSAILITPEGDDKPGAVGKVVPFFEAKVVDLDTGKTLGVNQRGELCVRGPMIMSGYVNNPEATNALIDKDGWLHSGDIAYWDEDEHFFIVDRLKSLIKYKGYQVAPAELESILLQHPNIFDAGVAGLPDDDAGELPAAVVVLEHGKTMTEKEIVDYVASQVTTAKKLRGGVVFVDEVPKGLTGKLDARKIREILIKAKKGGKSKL

**Q.** For `CC(C)=CCN1CCN(Cc2ccc(Sc3nncn3C)o2)CC1CCO` (stereo unspecified), which Potency is on record?
**A.** inactive

**Q.** How did the Potency turn out when `O=C(NCCc1ccccc1)C(=O)c1c[nH]c2ccccc12` was run?
**A.** inconclusive: 26.9 µM [inhibitor, single point]

**Q.** Which Potency does the source give for `CSC1=N/C(=C\c2ccc(C)o2)C(=O)S1` here?
**A.** inconclusive: 19 µM [inhibitor, partial curve]

**Q.** How did the Potency turn out when `O=C1NCCN/C1=C\C(=O)c1ccc(F)cc1` was run?
**A.** inconclusive: 21.3 µM [inhibitor, single point]

**Q.** `Cc1ccc2oc(=O)c3cc(C(=O)NCCCN4CCc5ccccc5C4)sc3c2c1` was tested. Which Potency did it give?
**A.** inactive

**Q.** How did the Potency turn out when `COC(=O)c1ccc(Cn2cnc3nc4c(cc3c2=O)CCCC4)cc1` was run?
**A.** inactive

**Q.** With `CCc1ccc(NC(=O)CCc2ccc(CC)o2)cc1` as the compound, how does the Potency read?
**A.** inconclusive: 16.9 µM [inhibitor, partial curve, poor fit]

**Q.** For `FC(F)(F)c1cc(-c2ccccc2)nc(N2CCCCCC2)n1`, which activity change, negative = inhibition is on record?
**A.** inactive: 2.6% [at 2.3 µM]

**Q.** With `CCOc1ccc(OCCC(=O)OCC(=O)NC2CCCC2)cc1` as the compound, how does the Potency read?
**A.** inconclusive: 37.9 µM [inhibitor, partial curve, poor fit]

**Q.** For `Cc1cc(C(=O)O)ccc1-n1c(C)cc(C=C2C(=O)c3ccccc3C2=O)c1C`, which Potency is on record?
**A.** inconclusive: 21.3 µM [inhibitor, single point]

**Q.** Which Potency does the source give for `COc1ccc(OCC(=O)NC(=S)Nc2ccc(N3CCOCC3)c(Cl)c2)cc1` here?
**A.** inconclusive: 30.1 µM [inhibitor, partial curve, poor fit]

**Q.** With `C/C(=N\NC(=S)NCc1ccccc1)c1ccccc1` as the compound, how does the Potency read?
**A.** inconclusive: 26.9 µM [inhibitor, single point]

**Q.** `Cc1ccc(N(CC(=O)Nc2ccccc2-c2ccccc2)S(=O)(=O)c2ccccc2)c(C)c1` was tested. Which Potency did it give?
**A.** inactive

**Q.** How did the Potency turn out when `Cc1ccc2[nH]c(C)c(/C=C/c3cc[n+](C)cc3)c2c1` was run?
**A.** inactive

**Q.** Which Potency does the source give for `COc1ccc(NC(=O)Nc2cccc(NC(C)=O)c2)c(OC)c1` here?
**A.** inconclusive: 23.9 µM [inhibitor, single point]

**Q.** Which Potency does the source give for `Cc1ccc(C(=O)c2c(N)c(-c3nc(-c4ccc5c(c4)OCO5)cs3)c3ccccn23)cc1C` here?
**A.** inactive

**Q.** How did the Potency turn out when `O=C(NCC1CCCO1)Nc1cccc(Cl)c1` (stereo unspecified) was run?
**A.** inconclusive: 37.9 µM [inhibitor, partial curve, poor fit]

**Q.** With `Cc1ccc(C(=O)Nc2cc(-c3nc4ncccc4o3)ccc2C)c(C)c1` as the compound, how does the Potency read?
**A.** inactive

**Q.** With `COc1cc(O)c(C(C)=O)c(CC(=O)O)c1` as the compound, how does the Potency read?
**A.** inactive

**Q.** For `Cc1cccn2c(=O)c3cc(C(=O)NC4CCCC4)sc3nc12`, which Potency is on record?
**A.** inconclusive: 23.9 µM [inhibitor, partial curve, poor fit]

**Q.** How did the Potency turn out when `Cc1ccc(S(=O)(=O)N2CCOCC2)cc1NC(=O)COC(=O)c1ccc2c(c1)OCCO2` was run?
**A.** inconclusive: 23.9 µM [inhibitor, partial curve]

**Q.** Which Potency does the source give for `CCc1ccc2oc(C(=O)Nc3cccc(Cl)c3C)cc(=O)c2c1` here?
**A.** inactive

**Q.** How did the Potency turn out when `CC(C)CCN(Cc1ccco1)C(=O)c1cc2c(s1)-c1ccccc1OC2` was run?
**A.** inactive

**Q.** For `CN(C)S(=O)(=O)c1cccc(NC(=O)c2ccc(OC(F)(F)F)cc2)c1`, which Potency is on record?
**A.** inconclusive: 37.9 µM [inhibitor, partial curve, poor fit]

**Q.** How did the Potency turn out when `Cc1ccc(/C=C2\SC(=S)N(CCCC(=O)Nc3ccc(O)cc3)C2=O)cc1` was run?
**A.** inconclusive: 8.49 µM [inhibitor, partial curve]

**Q.** With `COc1cc(-c2nnc(SCCOc3ccc(Cl)cc3)o2)cc(OC)c1OC` as the compound, how does the Potency read?
**A.** inactive

**Q.** How did the Potency turn out when `Cc1cc2oc(C(=O)Nc3nonc3C)c(C)c2cc1C` was run?
**A.** active: 2.39 µM

**Q.** `O=C(N/N=C/c1ccccn1)c1c[nH]c2ccccc12` was tested. Which Potency did it give?
**A.** active: 8.49 µM

**Q.** With `COc1ccc(N2CCN(C(=O)c3ccc(CNS(=O)(=O)c4cccc(OC)c4)cc3)CC2)cc1` as the compound, how does the Potency read?
**A.** inactive

**Q.** For `O=C(OCCN1CCOCC1)c1ccc(Cl)cc1Cl`, which Potency is on record?
**A.** active: 23.9 µM

**Q.** How did the Potency turn out when `O=C(N/N=C/c1cc(Cl)ccc1O)c1cccnc1` was run?
**A.** inconclusive: 19 µM [inhibitor, partial curve]

**Q.** `COc1ccccc1Oc1ccc(-c2cnc3ccccc3n2)cc1[N+](=O)[O-]` was tested. Which Potency did it give?
**A.** inconclusive: 9.53 µM [inhibitor, partial curve, poor fit]

**Q.** Which Potency does the source give for `CC(C)(C)c1ccc(OCC(O)CS(=O)(=O)c2ccccn2)cc1` (stereo unspecified) here?
**A.** inconclusive: 21.3 µM [inhibitor, partial curve, poor fit]

**Q.** `Cc1c(CC(=O)NCC(C)C)c(=O)oc2cc3c(cc12)CCC(C)(C)O3` was tested. Which Potency did it give?
**A.** inconclusive: 21.3 µM [inhibitor, partial curve, poor fit]

**Q.** `Nc1ccc(OCc2ccccc2)cc1` was tested. Which Potency did it give?
**A.** inconclusive: 15.1 µM [inhibitor, partial curve]

**Q.** `O=C(O)c1ccccc1S(=O)(=O)NCC(O)COc1ccc(Br)cc1` (stereo unspecified) was tested. Which Potency did it give?
**A.** inconclusive: 37.9 µM [inhibitor, partial curve, poor fit]

**Q.** `CN(C)C(=O)CSc1nc2ccc(C(=O)c3ccccc3)cc2[nH]1` was tested. Which Potency did it give?
**A.** inconclusive: 23.9 µM [inhibitor, single point]

**Q.** How did the Potency turn out when `O=C(NCCN1CCOCC1)c1noc2c1CCc1ccccc1-2` was run?
**A.** inconclusive: 13.5 µM [inhibitor, partial curve]

**Q.** Which Potency does the source give for `CN(C)S(=O)(=O)c1cccc(NC(=O)Cn2cc(C(F)(F)F)cc(Cl)c2=O)c1` here?
**A.** inactive

**Q.** For `COc1ccc(CCC(=O)OCc2csc(CC(=O)Nc3ccccc3C)n2)cc1`, which Potency is on record?
**A.** inactive

**Q.** `O=C(NCCc1ccccc1)c1cnc2n(c1=O)CCS2` was tested. Which Potency did it give?
**A.** inconclusive: 33.8 µM [inhibitor, partial curve, poor fit]

**Q.** `Cc1ccccc1NC(=O)CSc1nc2ccc(NC(=O)c3cccs3)cc2s1` was tested. Which Potency did it give?
**A.** inconclusive: 7.57 µM [inhibitor, full curve]

**Q.** Which Potency does the source give for `COc1ccc(NC(=O)CSc2ccc3nc(-c4ccccc4)cn3n2)c(OC)c1` here?
**A.** inconclusive: 26.9 µM [inhibitor, single point]

**Q.** `Cc1ccccc1NCc1nc2ccccc2n1C` was tested. Which Potency did it give?
**A.** active: 4.26 µM

**Q.** With `Oc1[nH]c2ccccc2c1N=Nc1ccccc1` as the compound, how does the Potency read?
**A.** active: 6.01 µM

**Q.** For `CSc1cccc(NC(=O)c2cccc(N3CCCS3(=O)=O)c2)c1`, which Potency is on record?
**A.** inconclusive: 30.1 µM [inhibitor, partial curve, poor fit]

**Q.** Which Potency does the source give for `Cc1ccc(-c2csc(NC(=O)C3=COCCO3)n2)cc1C` here?
**A.** active: 6.75 µM

**Q.** `O=C(Nc1nnc(C2CC2)s1)c1cccs1` was tested. Which Potency did it give?
**A.** inconclusive: 26.9 µM [inhibitor, single point]

**Q.** How did the Potency turn out when `COC(=O)C1=C(C)NC(=O)/C1=C\c1ccc2c(c1)OCO2` was run?
**A.** inconclusive: 12 µM [inhibitor, partial curve]

**Q.** How did the Potency turn out when `Cc1cccnc1CN1CCN(C(=O)CCc2nnc(CCc3ccccc3)o2)CC1` was run?
**A.** inconclusive: 26.9 µM [inhibitor, single point]

**Q.** How did the Potency turn out when `COC(=O)c1ccc(CN(C)S(=O)(=O)c2cccs2)cc1` was run?
**A.** inconclusive: 21.3 µM [inhibitor, single point]

**Q.** With `COc1ccccc1-c1nn2c(-c3ccc(C(C)(C)C)cc3)nnc2s1` as the compound, how does the Potency read?
**A.** inconclusive: 6.75 µM [inhibitor, partial curve, poor fit]

**Q.** Which Potency does the source give for `COc1ccc2nc(SCC(=O)C(C)(C)C)[nH]c2c1` here?
**A.** inconclusive: 13.5 µM [inhibitor, partial curve, poor fit]

**Q.** `O=C(CC1Sc2ccccc2NC1=O)OCC(=O)N1CCc2ccccc21` (stereo unspecified) was tested. Which Potency did it give?
**A.** inconclusive: 37.9 µM [inhibitor, partial curve, poor fit]

**Q.** How did the Potency turn out when `CC(C)N1CC(O)=C(c2nc3ccccc3c(=O)[nH]2)C1=N` was run?
**A.** inconclusive: 21.3 µM [inhibitor, partial curve, poor fit]

**Q.** With `CCSc1nnc(NC(=O)CSc2nnc(CNC(=O)c3ccc(OC)cc3)o2)s1` as the compound, how does the Potency read?
**A.** inconclusive: 37.9 µM [inhibitor, single point]

**Q.** Which Potency does the source give for `Cc1cccc(NC(=O)c2c(C)cc(C)nc2SCC(=O)c2ccccc2)c1` here?
**A.** inactive

**Q.** For `O=C(CCN1CCOCC1)c1ccc(N2CCCCC2)cc1`, which Potency is on record?
**A.** inconclusive: 30.1 µM [inhibitor, partial curve, poor fit]

**Q.** `CCN(CC)CCCNC(=O)c1ccc2c3n(nc2c1)-c1ccc(Cl)cc1CO3` was tested. Which Potency did it give?
**A.** inconclusive: 16.9 µM [inhibitor, partial curve]

**Q.** `CCOc1ccc(S(=O)(=O)Nc2cccc(-c3ccc(OCC)nn3)c2)cc1` was tested. Which Potency did it give?
**A.** inconclusive: 16.9 µM [inhibitor, partial curve, poor fit]

**Q.** For `Cc1ccc(SCC(=O)Nc2ccc(C(=O)Nc3ccc(O)cc3)cc2)cc1`, which Potency is on record?
**A.** inconclusive: 0.0107 µM [inhibitor, partial curve, poor fit]

**Q.** How did the Potency turn out when `CC(C)c1ccc(N2CC(C)(C)C2=O)cc1` was run?
**A.** inconclusive: 37.9 µM [inhibitor, single point]

**Q.** With `Cc1ccc(Nc2nc(CSc3nnc(-c4ccncc4)n3C)cs2)cc1` as the compound, how does the Potency read?
**A.** active: 0.601 µM

**Q.** How did the Potency turn out when `CCOc1ccccc1NC=C1C(=O)OC(C)(C)OC1=O` was run?
**A.** inconclusive: 26.9 µM [inhibitor, single point]

**Q.** `CC(C)(C)c1ccc(-c2ncccc2O)cc1` was tested. Which Potency did it give?
**A.** active: 13.5 µM

**Q.** `COc1ccc(CCNC(=O)c2ccc3c(c2)CCN3S(=O)(=O)c2ccc(C)cc2)cc1` was tested. Which Potency did it give?
**A.** inactive

**Q.** Which Potency does the source give for `COc1cccc(CNC(=O)c2ccccc2SCC(=O)N2CCCC2)c1` here?
**A.** inactive

**Q.** For `Cc1ccc(NC(=O)NCCCN2CCCC2=O)cc1`, which Potency is on record?
**A.** inconclusive: 37.9 µM [inhibitor, partial curve, poor fit]

**Q.** `Cc1ccc(NC(=O)C2CCCN(S(=O)(=O)c3ccc4c(c3)oc(=O)n4C)C2)cc1Cl` (stereo unspecified) was tested. Which Potency did it give?
**A.** inactive

**Q.** Which Potency does the source give for `O=C(Nc1ccc2c(c1)C(=O)NC2=O)c1ccc2ncsc2c1` here?
**A.** inconclusive: 13.5 µM [inhibitor, partial curve, poor fit]

**Q.** Which Potency does the source give for `COC(=O)C(Cc1ccc(OC(=O)c2ccc(C)cc2)cc1)N1Cc2ccccc2C1=O` (stereo unspecified) here?
**A.** inconclusive: 37.9 µM [inhibitor, partial curve, poor fit]
